Consider five molecules from patent US20250270341A1 (Alector, published 2025).

To fix the notation:
T1: Full length mouse CD98hc on CHO cells (mouse, UniProt P10852 1-526)
T1 construct: CHO cells stably overexpressing it; also called CHO-mouse CD98hc; CHO-mCD98hc
T1 sequence: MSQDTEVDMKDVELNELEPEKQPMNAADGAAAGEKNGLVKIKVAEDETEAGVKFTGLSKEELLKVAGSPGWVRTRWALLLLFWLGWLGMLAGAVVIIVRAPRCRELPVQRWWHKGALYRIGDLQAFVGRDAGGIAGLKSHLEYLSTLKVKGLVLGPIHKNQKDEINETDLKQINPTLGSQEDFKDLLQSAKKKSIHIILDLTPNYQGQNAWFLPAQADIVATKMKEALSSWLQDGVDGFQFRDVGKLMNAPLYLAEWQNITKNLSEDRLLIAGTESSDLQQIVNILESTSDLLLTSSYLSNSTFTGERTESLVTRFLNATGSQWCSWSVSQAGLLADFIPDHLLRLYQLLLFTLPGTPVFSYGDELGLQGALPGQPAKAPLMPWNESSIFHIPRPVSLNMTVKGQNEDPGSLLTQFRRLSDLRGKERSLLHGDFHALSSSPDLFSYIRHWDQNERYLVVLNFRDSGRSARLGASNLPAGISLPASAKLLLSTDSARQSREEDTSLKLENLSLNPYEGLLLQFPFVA

T2: Full length human CD98hc on CHO cells (human)
T2 construct: CHO cells stably overexpressing it; also called CHO-human CD98hc; CHO-huCD98hc
T2 chain: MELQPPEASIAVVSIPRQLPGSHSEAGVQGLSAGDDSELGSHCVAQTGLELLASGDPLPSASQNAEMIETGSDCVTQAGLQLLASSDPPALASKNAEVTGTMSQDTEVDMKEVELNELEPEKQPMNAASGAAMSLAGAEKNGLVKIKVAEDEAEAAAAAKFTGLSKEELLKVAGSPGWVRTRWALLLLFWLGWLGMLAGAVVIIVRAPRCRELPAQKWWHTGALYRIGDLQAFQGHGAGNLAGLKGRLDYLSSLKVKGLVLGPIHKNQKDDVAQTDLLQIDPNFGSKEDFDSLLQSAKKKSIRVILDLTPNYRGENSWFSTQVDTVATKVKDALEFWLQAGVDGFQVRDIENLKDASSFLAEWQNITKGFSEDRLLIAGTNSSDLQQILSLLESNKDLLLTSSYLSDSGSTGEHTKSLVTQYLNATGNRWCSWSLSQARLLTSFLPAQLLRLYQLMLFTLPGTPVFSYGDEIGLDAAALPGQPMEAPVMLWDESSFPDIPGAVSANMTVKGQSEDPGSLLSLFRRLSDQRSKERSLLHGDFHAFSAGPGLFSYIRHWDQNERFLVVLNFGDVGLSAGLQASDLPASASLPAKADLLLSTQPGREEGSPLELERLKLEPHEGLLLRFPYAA

T3: muCD98hc ECD Avi-His (mouse, UniProt P10852 100-526)
T3 construct: biotinylated on the Avi tag where captured on streptavidin; also called Mouse CD98-AVI-His; Mouse CD98hc-AVI-His
T3 sequence: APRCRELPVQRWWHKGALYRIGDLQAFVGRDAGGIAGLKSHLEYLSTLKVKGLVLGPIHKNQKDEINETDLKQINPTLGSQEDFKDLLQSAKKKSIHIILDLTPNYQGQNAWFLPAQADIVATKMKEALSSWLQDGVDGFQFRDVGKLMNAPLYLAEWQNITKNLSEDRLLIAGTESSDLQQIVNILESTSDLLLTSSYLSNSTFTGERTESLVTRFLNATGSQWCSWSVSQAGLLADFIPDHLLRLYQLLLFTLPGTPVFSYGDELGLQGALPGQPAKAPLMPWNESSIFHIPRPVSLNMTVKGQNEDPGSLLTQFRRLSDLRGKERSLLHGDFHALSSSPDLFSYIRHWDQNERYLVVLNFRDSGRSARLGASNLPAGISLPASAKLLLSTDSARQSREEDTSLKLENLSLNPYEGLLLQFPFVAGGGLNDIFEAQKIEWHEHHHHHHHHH

B1: CD98hc.04.013 (2+1 bispecific antibody) (bispecific antibody)
heavy 1: EVRLLESGGGLVQPGGSLRLSCAASGFTFSNYAMGWVRQAPGKGLEWVSAISGSGGSTYYADSVKGRFTTSRDDSKNALYLQMNSLRAEDTAVYYCARGGPGWYAADVWGQGTTVTVSSASTKGPSVFPLAPSSKSTSGGTAALGCLVKDYFPEPVTVSWNSGALTSGVHTFPAVLQSSGLYSLSSVVTVPSSSLGTQTYICNVNHKPSNTKVDKKV[here human IgG1 Fc with changes without letters]GGGGSGGGGSGGGGSEVQLVESGGDLGMPGGSLKLSCAASGFALSGYDMSWVRQTPDKRLEWVAYLSSGGGSTYYPYTVKGRFTISRDNAQNTLYLQMSSLKSEDTAIYYCARHSEVRPWFGYWGQGTLVTVSAGGSEGKSSGSGSESKSTGGSDIVMSQSPSSLAVSVGEKVTLTCKSSQSLLYSGNQKNYLAWYQQNPGQSPKLLIYWASTRESGVPDRFTGSGSGTDFTLTISSVKAEDLAVYYCQQYYTYPPTFGAGTKLGLK
heavy 2: EVRLLESGGGLVQPGGSLRLSCAASGFTFSNYAMGWVRQAPGKGLEWVSAISGSGGSTYYADSVKGRFTTSRDDSKNALYLQMNSLRAEDTAVYYCARGGPGWYAADVWGQGTTVTVSS[here human IgG1 constant region with changes without letters]
light: DIQMTQSPSSLSASVGDRVTITCRASQSISSYLNWYQQKPGKAPKLLIYAASSLQSGVPSRFSGSGSGTDFTLTISSLQPEDFATYYCQQADLPAFAFGGGTKVEIKRTVAAPSVFIFPPSDEQLKSGTASVVCLLNNFYPREAKVQWKVDNALQSGNSQESVTEQDSKDSTYSLSSTLTLSKADYEKHKVYACEVTHQGLSSPVTKSFNRGEC
B2: CD98hc.04.022 (2+1 bispecific antibody) (bispecific antibody)
heavy 1: EVRLLESGGGLVQPGGSLRLSCAASGFTFSNYAMGWVRQAPGKGLEWVSAISGSGGSTYYADSVKGRFTTSRDDSKNALYLQMNSLRAEDTAVYYCARGGPGWYAADVWGQGTTVTVSSASTKGPSVFPLAPSSKSTSGGTAALGCLVKDYFPEPVTVSWNSGALTSGVHTFPAVLQSSGLYSLSSVVTVPSSSLGTQTYICNVNHKPSNTKVDKKV[here human IgG1 Fc with changes without letters]GGGGSGGGGSGGGGSEVQLQQSGAELVKPGASVKLSCTASGFNIKDTFMHWMKQRPEQGLEWIGRIDPANANTRYDPKFQGKATITTDTSSNTAYLQLSSLTSEDTAVYYCARDVYYDVWGAGTTVTVSSGGSEGKSSGSGSESKSTGGSDILMTQSPSSMSVSLGDTVTITCHASQGISSNIGWLQQKPGRSFKGLIYHGSNLEDGVPSRFTGSGSGTDYSLTISGLESEDFADYYCVQYAQFPRTFGGGTKLEIQ
heavy 2: EVRLLESGGGLVQPGGSLRLSCAASGFTFSNYAMGWVRQAPGKGLEWVSAISGSGGSTYYADSVKGRFTTSRDDSKNALYLQMNSLRAEDTAVYYCARGGPGWYAADVWGQGTTVTVSS[here human IgG1 constant region with changes without letters]
light: B1 light
B3: CD98hc.04.018 (2+1 bispecific antibody) (bispecific antibody)
heavy 1: EVRLLESGGGLVQPGGSLRLSCAASGFTFSNYAMGWVRQAPGKGLEWVSAISGSGGSTYYADSVKGRFTTSRDDSKNALYLQMNSLRAEDTAVYYCARGGPGWYAADVWGQGTTVTVSSASTKGPSVFPLAPSSKSTSGGTAALGCLVKDYFPEPVTVSWNSGALTSGVHTFPAVLQSSGLYSLSSVVTVPSSSLGTQTYICNVNHKPSNTKVDKKV[here human IgG1 Fc with changes without letters]GGGGSGGGGSGGGGSQIQLVQSGPELKKPGETVKISCKASGYTFRNYGMNWVKQAPGKGLKWMGWINTYTGEPTYAEDFKGRFAFSLETSASTAYLQINKLKNEDEATYFCARGEAHWYFDVWGAGTTVTVSSGGSEGKSSGSGSESKSTGGSQIVLTQSPAIMSASLGERVTMTCTASSSVSSSYLYWYQQKPGSSPKLWIYSIFNLASGVPARFSGSGSGTSYSLTISSMEAEDAATYYCHQYHRSPPTFGGGTKLEIK
heavy 2: EVRLLESGGGLVQPGGSLRLSCAASGFTFSNYAMGWVRQAPGKGLEWVSAISGSGGSTYYADSVKGRFTTSRDDSKNALYLQMNSLRAEDTAVYYCARGGPGWYAADVWGQGTTVTVSS[here human IgG1 constant region with changes without letters]
light: B1 light
B4: CD98hc.04.046 (2+1 bispecific antibody) (bispecific antibody)
heavy 1: EVRLLESGGGLVQPGGSLRLSCAASGFTFSNYAMGWVRQAPGKGLEWVSAISGSGGSTYYADSVKGRFTTSRDDSKNALYLQMNSLRAEDTAVYYCARGGPGWYAADVWGQGTTVTVSSASTKGPSVFPLAPSSKSTSGGTAALGCLVKDYFPEPVTVSWNSGALTSGVHTFPAVLQSSGLYSLSSVVTVPSSSLGTQTYICNVNHKPSNTKVDKKV[here human IgG1 Fc with changes without letters]GGGGSGGGGSGGGGSQIQLVQSGPVLKKPGETVKISCKASGYTFTNFGMNWVKQAPGKGLKWMGWIDTYTREPTYVDDFKGRFAFSLETSVTTAYLQINDLKNEDSATYFCARGESHWYFDVWGAGTTVTVSSGGSEGKSSGSGSESKSTGGSQIVLTQSPAIMSASLGERVTMTCIVSSSVSSSYLYWYQQKPGSSPKLWIYSTSILASGVPGRFSGSGSGTSYSLTISSMEAEDAATYYCHQYHRSPPTFGGGTKLEIK
heavy 2: EVRLLESGGGLVQPGGSLRLSCAASGFTFSNYAMGWVRQAPGKGLEWVSAISGSGGSTYYADSVKGRFTTSRDDSKNALYLQMNSLRAEDTAVYYCARGGPGWYAADVWGQGTTVTVSS[here human IgG1 constant region with changes without letters]
light: B1 light
B5: CD98hc.04.045 (2+1 bispecific antibody) (bispecific antibody)
heavy 1: EVRLLESGGGLVQPGGSLRLSCAASGFTFSNYAMGWVRQAPGKGLEWVSAISGSGGSTYYADSVKGRFTTSRDDSKNALYLQMNSLRAEDTAVYYCARGGPGWYAADVWGQGTTVTVSSASTKGPSVFPLAPSSKSTSGGTAALGCLVKDYFPEPVTVSWNSGALTSGVHTFPAVLQSSGLYSLSSVVTVPSSSLGTQTYICNVNHKPSNTKVDKKV[here human IgG1 Fc with changes without letters]GGGGSGGGGSGGGGSQIQLVQSGPELKKPGETVKISCKASGYSITNFGMNWVKQAPGKGLKWMGWVNTYTGEPTYADDFKGRFAFSLETSASTASLQINNLKNEDTATYFCTRSVITYTMDYWGQGTSVTVSSGGSEGKSSGSGSESKSTGGSDIQLTQSPSSLSASLGERVSLTCRASQEISGYLSWLQQKPDGTIKRLIYAASTLDSGVPKRFSGSRSGSDYSLTISSLESEDFADYYCLQYASYPRTFGGGTKVEIK
heavy 2: EVRLLESGGGLVQPGGSLRLSCAASGFTFSNYAMGWVRQAPGKGLEWVSAISGSGGSTYYADSVKGRFTTSRDDSKNALYLQMNSLRAEDTAVYYCARGGPGWYAADVWGQGTTVTVSS[here human IgG1 constant region with changes without letters]
light: B1 light

The first test addresses T1, Full length mouse CD98hc on CHO cells. The experiment in a line: FACS, 5 ug/ml. (In flow cytometry, cells or beads pass a laser one at a time.)
Regarding B1, the “MFI fold-change relative to isotype hIgG1” value was 1.3.
Still for that read-out and setting: the result for B2 reads 1.1; that for B3, 0.7.
The same measure, in the same setting: next, B4: 0.8.
Still for that read-out and setting: next, B5: 0.4.

The target of a further test is T2, Full length human CD98hc on CHO cells. The experiment in a line: FACS, 5 ug/ml.
Turning to B1, the “MFI fold-change relative to isotype hIgG1” value worked out at 26.4.
Consider B2, for which the “MFI fold-change relative to isotype hIgG1” value was found to be 5.6.
The same measure, in the same setting: next, B3: 14.8.
Still for that read-out and setting: next, B4: 3.9.
The same measure, in the same setting: the result for B5 reads 0.9.

A further test has as its target T3, muCD98hc ECD Avi-His. The experiment in a line: ELISA, 1 ug/ml. A general note: ELISA stands for enzyme-linked immunosorbent assay.
On to B1, for which the “ELISA fold-change relative to isotype hIgG” value came out at 2.
Same read-out and setting: the result for B2 reads 1.1; that for B3, 1.1; that for B4, 1.1.
Same read-out and setting: the result for B5 reads 1.1.

The next test deals with T4, Human TfR-AVI-His (control) (human, UniProt P02786).
T4 construct: control protein; also called Avi-His-tagged human TfR; human transferrin receptor
T4 sequence (P02786 89-760 limits assumed): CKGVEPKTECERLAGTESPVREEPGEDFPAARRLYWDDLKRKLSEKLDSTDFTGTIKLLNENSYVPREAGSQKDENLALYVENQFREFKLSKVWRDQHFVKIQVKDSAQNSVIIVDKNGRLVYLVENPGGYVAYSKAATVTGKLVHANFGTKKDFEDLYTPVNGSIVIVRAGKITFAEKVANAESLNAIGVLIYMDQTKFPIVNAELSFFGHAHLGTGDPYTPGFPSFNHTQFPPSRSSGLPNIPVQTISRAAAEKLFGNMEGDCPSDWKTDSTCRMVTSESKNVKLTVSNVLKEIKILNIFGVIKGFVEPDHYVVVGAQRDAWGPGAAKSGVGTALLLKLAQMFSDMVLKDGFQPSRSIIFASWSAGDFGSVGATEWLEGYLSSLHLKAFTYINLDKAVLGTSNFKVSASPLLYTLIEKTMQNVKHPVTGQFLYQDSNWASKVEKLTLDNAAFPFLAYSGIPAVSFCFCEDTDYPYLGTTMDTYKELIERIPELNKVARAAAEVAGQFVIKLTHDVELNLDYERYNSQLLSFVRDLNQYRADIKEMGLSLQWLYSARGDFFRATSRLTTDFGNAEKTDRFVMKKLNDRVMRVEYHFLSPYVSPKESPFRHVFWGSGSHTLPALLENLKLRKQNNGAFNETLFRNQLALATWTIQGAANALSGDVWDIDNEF
In words: ELISA, 1 ug/ml.
Consider B1, for which the “ELISA fold-change relative to isotype hIgG” value was 1.6.
For the molecule B2, the “ELISA fold-change relative to isotype hIgG” value came out at 1.2.
On the same count and under the same terms, next, B3: 1.1.
In the case of B4, the “ELISA fold-change relative to isotype hIgG” value was 1.1.
The same measure, in the same setting: next, B5: 1.1.
